Assay results published in article PMC6919601, “Identification of Plasmodium dipeptidyl aminopeptidase allosteric inhibitors by high throughput screening” (PLoS ONE, 2019).
Among all 110,000 compounds or so, about 230 (0.21%) showed an effect of 50% or more. The list shows a part of the results.

Target: DPAP1 (Plasmodium falciparum, UniProt Q8IIJ9)
Test: primary screen, percent inhibition; read by cleavage of a fluorogenic dipeptide substrate; higher = more effect of the substance
Parameters: species or system P. falciparum D10 trophozoite lysates; single well
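Further: 30 min substrate incubation versus DMSO and 10 µM JCP410 controls.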

Sequence of DPAP1 (Q8IIJ9 whole entry, looked up): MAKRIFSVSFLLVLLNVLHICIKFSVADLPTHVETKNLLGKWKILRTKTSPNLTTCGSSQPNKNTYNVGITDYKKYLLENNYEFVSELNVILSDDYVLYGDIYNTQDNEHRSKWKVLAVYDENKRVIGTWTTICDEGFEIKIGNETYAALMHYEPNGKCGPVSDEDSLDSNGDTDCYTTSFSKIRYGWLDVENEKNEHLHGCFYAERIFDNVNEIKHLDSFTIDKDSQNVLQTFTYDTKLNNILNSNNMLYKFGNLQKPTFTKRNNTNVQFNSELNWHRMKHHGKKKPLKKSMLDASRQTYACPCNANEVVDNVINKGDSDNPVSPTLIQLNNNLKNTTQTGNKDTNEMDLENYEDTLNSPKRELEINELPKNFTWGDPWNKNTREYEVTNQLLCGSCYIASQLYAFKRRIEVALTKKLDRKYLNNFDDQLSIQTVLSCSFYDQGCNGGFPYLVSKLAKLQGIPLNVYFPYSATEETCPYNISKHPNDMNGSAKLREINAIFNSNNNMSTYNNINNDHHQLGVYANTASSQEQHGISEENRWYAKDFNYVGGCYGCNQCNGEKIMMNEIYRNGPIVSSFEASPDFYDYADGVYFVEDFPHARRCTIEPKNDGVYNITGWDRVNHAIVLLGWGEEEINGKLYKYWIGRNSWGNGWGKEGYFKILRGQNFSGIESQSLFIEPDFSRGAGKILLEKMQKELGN

SMILES | % Inhibition @ 10 uM [%]
CCOc1ccc(CCNC(=O)C2CCN(S(=O)(=O)N3CCC(C)CC3)CC2)cc1OCC | -1.34
COc1ccc(S(=O)(=O)NC(C(C)C)C(C)C)cc1OC | -3.72
OC(CSc1ccccc1)CN1CCCCC1 (centres unmarked) | -1.05
Cc1ccc(CNC(=O)CSc2nc(-c3ccc4c(c3)OCO4)ccc2C#N)cc1 | -2.45
CCN(CC)S(=O)(=O)c1ccc(NC(=O)c2ccc(F)cc2)cc1 | -0.173
Cc1cccc(C(=O)NC(CC(=O)O)c2ccc(C(C)(C)C)cc2)c1 (centres unmarked) | -0.703
CCN(CCN(C)C)CC1=CC[C@H]2C[C@@H]1C2(C)C | 0.217
O=C(Nc1nccs1)c1cccc([N+](=O)[O-])c1C(=O)O | -0.13
Cc1nn(C)c(C)c1CNC(=O)c1nn2c(c1Cl)NC(c1cccs1)CC2C(F)(F)F (centres unmarked) | -0.988
CCOC(=O)c1sc2ccccc2c1NC(=O)c1ccc2c(c1)OCCO2 | 20.4
O=C(Nc1ccccc1C(=O)O)c1ccc(Br)c(S(=O)(=O)N2CCCCC2)c1 | 9.02
CCOC(=O)c1c(/N=C/C2C(=O)c3ccccc3C2=O)sc(C)c1C | -5.01
Cc1ccc(NC(=O)c2c(-c3ccccc3Cl)noc2C)nc1 | -1.93
c1ccc(C2CC3CC4(CCCC4)N2O3)cc1 (centres unmarked) | 1.52
Cc1ccc(C(=O)Nc2nc(-c3nnn(-c4cccc(C)c4C)c3C)ns2)cc1 | -7.04
CC1=C(C(=O)Nc2ccccc2)C(c2cnn(C)c2C)n2c(s/c(=C/c3ccoc3)c2=O)=N1 (centres unmarked) | 0.389
CCOc1cc(/C=C2/NC(=O)N(Cc3ccccc3F)C2=O)c(Br)cc1OC | -0.0626
c1cncc(CNCc2cccc3ccccc23)c1 | 3.99
CC(C)SC1=NSC2=NC(=O)/C(=C\c3c[nH]c4ccccc34)C(=N)N21 | -3.51
CC(=O)c1cccc(NC(=O)c2ccccc2C)c1 | 3.13
COc1ccc(C(=O)O)cc1S(=O)(=O)NCc1ccccc1 | 14.5
NC(=O)c1ccc(NC(=O)c2cc(C(F)(F)F)cc(C(F)(F)F)c2)cc1 | 4.99
CC(C)(C)c1ccc(CN(Cc2ccco2)S(=O)(=O)c2ccc(S(N)(=O)=O)cc2)cc1 | 6.92
CCC(Sc1nc(O)c2c(n1)CCC2)C(=O)NC1CCCCC1 (centres unmarked) | 12
CCCOc1ccccc1C1C(C#N)=C(N)Oc2[nH]nc(-c3ccc4c(c3)OCO4)c21 (centres unmarked) | -2.77

SMILES | % Inhibition @ 10 uM [%]
N#CC1=C(N)N(c2nc[nH]n2)C2=C(C(=O)CC(c3ccccc3)C2)C1c1cccc(Cl)c1 (centres unmarked) | -4.6
Cc1ccccc1OCCCSCc1nc2ccccc2[nH]1 | -1.74
Cc1csc(NC(=O)C2c3ccccc3C(=O)N(CC(C)C)C2c2cccs2)n1 (centres unmarked) | -4.07
CCOc1ccccc1N1CCN(C(=O)NC2CCCCC2)CC1 | -4.15
COc1cc2c(cc1OC)C(COc1cccc(C(F)(F)F)c1)N(C(=O)C(C)C)CC2 (centres unmarked) | 4.79
CCCOC(=O)CSc1nc(C)c(C)c(C)c1C#N | -3.03
Cc1nnc(O)nc1NCc1ccco1 | -4.93
O=C(c1cc2c(Cl)ccc3c2n1CCO3)N1CCC(N2CCCCC2)CC1 | -7.68
CCNc1nc2n(c(=O)n1)CCN2CC | -2.48
O=C(CCCC(=O)NC1CCCCC1)NC1CCCCC1 | -5.96
Cc1ccccc1OC(C)C(=O)Nc1ccc2ccccc2c1 (centres unmarked) | 0.331
Cc1ccccc1OCCCCn1cnc2ccccc21 | -2.28
CCOc1ccc(CCNC(=O)c2c(C)nn(-c3ccc(F)cc3)c2-n2cccc2)cc1 | -2.48
CC(C)N1C(=O)S/C(=C\c2cc3c(cc2Br)OCO3)C1=O | 0.147
Cc1cccc(C)c1-n1c(C)cc(/C=C2\C(=N)N3N=C(N4CCOCC4)SC3=NC2=O)c1C | 0.0579
Cc1ccccc1-c1nc(CSCC(=O)N2CCc3ccccc3C2)c(C)o1 | 3.99
CN1CCN(Cc2cccc(Cl)c2Cl)CC1 | 1.63
COc1ccccc1CNc1cnn(C23C[C@@H]4C[C@@H](CC(CC(=O)O)(C4)C2)C3)c(=O)c1Cl | -1.59
Cc1csc2nc(-c3ccc(Br)cc3)cn12 | 4.23
CC(=O)Nc1ccc(S(=O)(=O)Nc2ccc(S(=O)(=O)Nc3ccc(C)cc3C)cc2)cc1 | 0.795
c1ccc(CN2CCCCCCC2)nc1 | -4.75
O=C(O)CCC(=O)N1N=C(c2ccco2)CC1c1ccco1 (centres unmarked) | 0.472
CC1=C(C(=O)Nc2ccccc2C)C(c2cccs2)NC(=O)N1 (centres unmarked) | -15.9
Cc1sc2c(=O)n3c(nc2c1C(=O)NCc1ccccc1)CCCCC3 | -1.65
Cc1ccc(-n2ncc(C(=O)NCc3cccnc3)c2C2CCN(C(=O)OC(C)(C)C)CC2)cc1 | -6.76

SMILES | % Inhibition @ 10 uM [%]
Cc1ccccc1Cn1c(CN2CCN(Cc3ccccc3)CC2)nc2c1c(=O)[nH]c(=O)n2C | 24.9
COc1cccc(-c2cc(C(=O)Nc3ccccc3C(N)=O)c3ccccc3n2)c1 | -1.79
Cc1cc(C)c(S(=O)(=O)Nc2ccc(N3CCOCC3)cc2)c(C)c1 | -2.63
COc1ccc(/N=c2\scc(-c3ccc(OC(F)F)cc3)n2CCO)cc1 | -3.39
Cc1ccc(-c2nn(CC(=O)NCc3ccccc3)c(=O)c3ccccc23)cc1 | 0.029
Cc1ccc(CSc2nc3nccnc3c(=O)n2Cc2ccccc2)cc1 | 1.1
COc1ccc(S(=O)(=O)N2CCN(C/C=C/c3ccccc3)CC2)cc1 | 1.87
CC(=O)N1CCN(Cc2ccc(F)cc2)CC1 | 7.1
O=C1c2ccccc2C(=O)N1CCc1c[nH]c2ccccc12 | -1.76
O=C(Nc1ccc(CN2CCOCC2)cc1)c1ccccc1F | -3.95
COC(=O)C1=CN(C)C=C(C(=O)OC)C1c1cccc(Oc2ccccc2)c1 | 4.99
Cc1cc(C)c(NC(=O)c2sccc2C)c(C)c1 | -4.52
CN1CCN(C(=O)Cn2cccc2C(=O)c2ccccc2)CC1 | 1.15
Nc1c(C(=O)Nc2ccc3c(c2)OCO3)sc2nc(-c3ccc(F)cc3)ccc12 | 8.93
Fc1ccccc1N1CCN(C2N=CNc3sc4c(c32)CCCC4)CC1 (centres unmarked) | -4.71
CCc1cc2c(cc1OC)OCC(c1ccc3c(c1)OCCO3)C2=O (centres unmarked) | -2.59
COC(=O)c1c(NC(=O)c2ccccc2OC)sc(C)c1C | 38.9
COC(=O)c1cnn2c(O)cc(C3CCNCC3)nc12 | 4.01
COc1cccc2cc(-c3ccc([N+](=O)[O-])cc3)c(=O)oc12 | -4.5
CNC(=O)NC1OC(CO)C(O)C(O)C1O (centres unmarked) | 1.57
Cc1ccc(-c2nc(CS(=O)CC(=O)NCCN3CCOCC3)c(C)o2)cc1 (centres unmarked) | 3.99
COc1ccc(CCNC(=O)CSc2nc3cc(OC)c(OC)cc3c3nc(C)nn23)cc1OC | -0.499
CCc1nn(CC(=O)NCc2ccc(F)cc2)c(=O)c2cc3cc(F)ccc3n12 | -1.7
C=CCNc1nc(OC(C(F)(F)F)C(F)(F)F)nc(N2CCCCC2)n1 | 7.24
Cc1onc(-c2ccccc2Cl)c1C(=O)Nc1ccc(C(N)=O)cc1 | -1.2

SMILES | % Inhibition @ 10 uM [%]
C=C(C)C(=O)OCCc1ccc(O)c(-n2nc3ccccc3n2)c1 | 2.45
COc1ccc(C(=O)C2=C(O)C(=O)N(CCCN(C)C)C2c2cccc(O)c2)cc1F (centres unmarked) | -13.9
CCc1ccc(CNC(=O)c2ccc(CS(=O)(=O)Cc3ccccc3Cl)o2)cc1 | -5.43
CC(C)CC(NC(=O)N1CCN(S(=O)(=O)c2ccc3ccccc3c2)CC1)C(=O)NCCCCNC(=O)OCc1ccccc1 (centres unmarked) | -2.35
O=C1c2cccc3cccc(c23)C(=O)C1c1ccccn1 | 3
COc1ccc2c(c1)Cc1sc(NC(=O)c3ccc(OC)c(Br)c3)nc1-2 | 4.84
CCN(CC)CC#CC(CC)(CC)OC(C)=O | -0.261
CCOC(=O)c1c(C)oc2ccc(OCC(=O)c3ccc(Br)cc3)cc12 | 1.37
CCOc1ccc(/C=C2/C=C(c3cc(OC)ccc3OC)OC2=O)cc1 | 4.74
CCN1C(=O)C2C3c4ccccc4C(C(=O)O)(c4ccccc43)C2C1=O (centres unmarked) | 11.5
CCSC(C)CC1CC(=O)c2c(oc(C)c(CC)c2=O)C1 (centres unmarked) | -0.233
CC1(C)CC(C)(c2ccc(O)cc2O)NC(=S)N1 (centres unmarked) | -6.06
CC1(C)CC2=NC(SC3C=CCCC3)=C(C#N)C(c3ccccc3)C2=C(O)C1 (centres unmarked) | -0.261
Cc1ccc(N2CCN(Cc3ccoc3)CC2)cc1 | 4.68
COc1ccc(N(CC(=O)NC2CC2)S(=O)(=O)c2ccc(C)cc2)cc1OC | 4.83
COc1ccc(-c2cccc(C(=O)N[C@@H](CC(C)C)C(=O)NCC#N)c2)cc1 | 2.87
CCOC(=O)N1CCC(n2c(SCC(=O)c3ccc(Cl)cc3)nc3ccsc3c2=O)CC1 | 0.0592
CC1=C(C(=O)NCc2ccccc2)C(c2ccc(F)cc2)NC(S)=N1 (centres unmarked) | -1.24
CCN(CC)CCn1c(NCc2ccccc2OC)nc2ccccc21 | -2.91
COc1ccc(-c2cc(C(F)F)n3ncc(C(=O)NCCc4ccccc4OC)c3n2)cc1 | -0.0619
CC1CC(=O)C2=C(C1)OC(N)=C(C#N)C2c1ccc2ccccc2c1 (centres unmarked) | -3.79
CCN(CC)CCNC(=O)CCc1c(C)nc2cc(-c3ccc(OC)cc3OC)nn2c1C | -2.25
CSc1ccc(C2Nc3ccc4ccccc4c3C3=C2C(=O)CC(C)(C)C3)cc1 (centres unmarked) | 2
